The campaign covered roughly 330,000 compounds. About 4,200 (1.3%) were called active. The inconclusive results got no clear call from the source; some entries with a clear call stand among them for comparison. Calls follow the shape of the dose curve; as a rule, active = well fitted activation curve with a large enough effect; inconclusive = small, poorly fitted or top-dose-only effect; inactive = no such curve, though single readings can be large or run the other way. Potencies of inconclusive entries are doubtful fits and often do not repeat.
Experiment: qHTS screen for small molecules that induce genotoxicity in human embryonic kidney (HEK293T) cells expressing luciferase-tagged ELG1; also: nearly all actives have a fitted effect of over 60% in size; as to activity change, positive = activation: % of control where 0% means no effect
Settings: HEK293T ELG1-luciferase reporter, luminescence, 16 h; series mostly up to 46 µM; activity change, positive = activation: at the top concentration
Method in brief: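 Reporter readout depends on ELG1 protein level, which increases with genetic stress. After 16 hr compound exposure at 37 °C, luciferase activity was quantified using ONE-Glo.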
Potency is read from the fitted curve at half-maximal effect; tags tell the direction and shape of the fitted curve.

| SMILES | Potency | activity change, positive = activation |
| --- | --- | --- |
| O=C(O)c1ccccc1NN=C1CCCCC1 | inconclusive: 13 µM [activator, partial curve] | – |
| Oc1ccc(/C=N/Nc2ccnc3cc(Cl)ccc23)c(O)c1 | – | inactive: 11.8% |
| C/C(=N\Nc1ccc(Cl)cc1)c1c(O)cc(C)oc1=O | – | inactive: 20.9% |
| Cc1ccc(OCCn2nc3ccccc3n2)c(C)c1 | active: 18.4 µM | – |
| S=c1[nH]nc(-c2cccnc2)n1/N=C/C(Cl)=C\c1ccccc1 | inconclusive: 14.6 µM [activator, partial curve] | – |
| COc1cc(/C=N/NC(=O)c2ccccc2NS(=O)(=O)c2cccs2)ccc1O | – | inactive: 1.22% |
| CN(C)S(=O)(=O)c1ccc(C(=O)Nc2nnc(Cc3ccccc3)s2)cc1 | inconclusive: 29.1 µM [activator, single point] | – |
| CC(C)CNc1oc(-c2ccc(F)cc2)nc1C#N | inconclusive: 20.6 µM [activator, single point] | – |
| CCc1ccc(-c2cc(N)n(-c3ccccc3)n2)cc1 | active: 2.59 µM | – |
| Clc1ccc2nc(CSc3ncn[nH]3)cn2c1 | inconclusive: 32.6 µM [activator, partial curve, poor fit] | – |
| CC1=NN(C(N)=S)C(=O)C1N=Nc1ccc(Cl)cc1 (centres undefined) | active: 7.3 µM | – |
| COc1ccc2cc(C[C@@H]3CC[C@@H](CO)O3)ccc2c1 | inconclusive: 16.4 µM [activator, partial curve] | – |
| Cc1cc(=O)oc2cc(NC(=O)c3ccccc3OC(F)F)ccc12 | inconclusive: 23.1 µM [activator, partial curve] | – |
| O=C1N[C@@H](Cc2c[nH]c3ccccc23)COC(=O)[C@@H](Cc2ccc(F)cc2)C/C=C\C[C@H]1CC(=O)N(CCO)Cc1ccccc1 | – | inactive: -11.4% |
| COc1ccc(C(=O)NCC(=O)OCC(=O)N2CC(C)OC(C)C2)cc1OC (centres undefined) | – | inactive: 3.06% |
| O=C(Nc1ccccn1)c1ccc2c(c1)OCCO2 | – | inactive: 8.49% |
| O=Cc1ccc(OCCOc2ccc([N+](=O)[O-])cc2)cc1 | – | inactive: 1.32% |
| O=C(Oc1ccc(-c2cnc3ccccc3n2)cc1)c1cccc([N+](=O)[O-])c1 | active: 7.31 µM | – |
| CN1C/C(=C/c2ccncc2)C(=O)/C(=C/c2ccncc2)C1 | – | inactive: -10.9% |
| O=C1CCCC2=C1C(c1ccc(O)c(O)c1)Nc1ccc3ncccc3c12 (centres undefined) | inconclusive: 20.6 µM [activator, partial curve, poor fit] | – |
| O=C1C=C(N2CCCCCC2)C(=O)N1c1ccc(Cl)cc1 | inconclusive: 4.61 µM [activator, partial curve] | – |
| COc1ccc(-c2cc(C(F)F)n3ncc(C(=O)N4CCCc5ccccc54)c3n2)cc1 | inconclusive: 20.6 µM [activator, partial curve, poor fit] | – |
| COCCN=c1scc(-c2cccs2)n1/N=C(\C)c1ccco1 | – | inactive: 11.8% |
| CCSc1nc(N)c2c3c(sc2n1)CCC3 | inconclusive: 20.6 µM [activator, partial curve, poor fit] | – |
| NS(=O)(=O)c1ccc(CNC(=S)NCc2ccc(Cl)cc2)cc1 | – | inactive: 2.76% |

| SMILES | Potency | activity change, positive = activation |
| --- | --- | --- |
| Cc1c(OCc2ccc(C(=O)O)o2)ccc2c3c(c(=O)oc12)CCC3 | inconclusive: 29.1 µM [activator, single point] | – |
| O=C(CSc1nc(-c2ccc(F)cc2)cs1)Nc1ccccn1 | – | inactive: 6.68% |
| CC1CCC(NC(=O)c2ccc3c(c2)OCO3)CC1 (centres undefined) | active: 0.461 µM | – |
| COc1ccccc1N1CCN(C(=O)CSc2ccccc2)CC1 | inconclusive: 20.6 µM [activator, partial curve] | – |
| CCOc1ccc(C(=O)OCC(=O)N2CCCC2)cc1 | inconclusive: 18.3 µM [activator, partial curve, poor fit] | – |
| COCC1CCN(C(=O)c2ccc3oc(CCCc4ccccc4)nc3c2)C1 (centres undefined) | inconclusive: 20.6 µM [activator, partial curve, poor fit] | – |
| COc1ccc2c(c1)CCc1c(C(=O)N3CCOCC3)noc1-2 | active: 11.6 µM | – |
| CN(Cc1ccc(F)cc1)C(=O)c1cc(COc2ccc(-n3cncn3)cc2)on1 | – | inactive: -9.12% |
| Cc1cccc(-c2cc3nc(-c4ccccc4)cc(=O)n3[nH]2)c1 | inconclusive: 5.8 µM [activator, partial curve] | – |
| O=C(O)c1cccc(Nc2nc(-c3cc4ccccc4oc3=O)cs2)c1 | inconclusive: 20.6 µM [activator, partial curve] | – |
| O=C(Nc1nc(-c2ccccn2)cs1)C1COc2ccccc2O1 (centres undefined) | inconclusive: 29.1 µM [activator, single point] | – |
| O=C(Nc1ccc(Br)cc1)C1CC(c2c(F)cccc2Cl)=NO1 (centres undefined) | inconclusive: 10.3 µM [activator, partial curve, poor fit] | – |
| Cc1ccn2cc(CC(=O)O)nc2c1 | – | inactive: 0.898% |
| COc1ccc(N2C(=O)c3ccc(C(=O)Nc4ccc(NC(C)=O)cc4)cc3C2=O)cc1 | inconclusive: 32.6 µM [activator, partial curve, poor fit] | – |
| c1ccc2sc(SCc3ccc(-c4nnco4)cc3)nc2c1 | inconclusive: 2.06 µM [activator, full curve, poor fit] | – |
| Cc1cc(/C=C(\C#N)c2nc3ccccc3[nH]2)c(C)n1C | inconclusive: 3.66 µM [activator, partial curve] | – |
| CCC1CCC2(CC1)NC(=O)N(CC(=O)Nc1ccc(OC)c(Cl)c1)C2=O (centres undefined) | – | inactive: 0.143% |
| CCOC(=O)c1ccc2nc(C)c(CCC(C)=O)c(Cl)c2c1 | inconclusive: 4.61 µM [activator, full curve, poor fit] | – |
| CCOC(=O)C1(N(CC)CC)Sc2cc(C)ccc2NC1=O (centres undefined) | – | inactive: -0.745% |
| CCc1ccc(-c2cc3c(=O)n(CC(=O)N4CCCC4)nc(C)n3n2)cc1 | – | inactive: 2.67% |
| CC(=O)Nc1ccc(NC(=O)Cc2ccc(-c3ccccc3)cc2)cc1 | – | inactive: 1.34% |
| Cc1cc(C(=O)CSc2nnc(N)s2)c(C)n1Cc1cccs1 | active: 0.92 µM | – |
| Cc1nnc(NC(=O)c2ccc(S(=O)(=O)C(F)F)cc2)s1 | inconclusive: 20.6 µM [activator, single point] | – |
| CC1CCCN(C(=O)COC(=O)c2n[nH]c3ccccc23)C1 (centres undefined) | active: 23.1 µM | – |
